Test results as given in US9234178B2, “Differentiation of human pluripotent stem cells” (Janssen Biotech, Inc., priority 2008, dated 2016).

Tests used:
[1] = system: cells expressing markers characteristic of the pancreatic endocrine lineage; experiment: Screening of BIOMOL Kinase Inhibitor Library, real-time PCR (Example 7); conditions: for Ratio vs. Control: Insulin to Glucagon / Ratio vs. Control: MAFA to Arx4: 4 μM, six days; for fold induction at 4 µM: Homo sapiens, 144 h
[2] = system: cells expressing markers characteristic of the pancreatic endocrine lineage; experiment: Screening of EMD Kinase Inhibitor Library I for MAFA expression, real-time PCR (Example 10); format: cell-based; conditions: 2.5 μM, days 1, 3, 5 of stage 5; fold increase versus untreated H1 human embryonic stem cells
[3] = read-out: Ratio vs. Control: Insulin to Glucagon
[4] = read-out: Ratio vs. Control: MAFA to Arx4

Molecule | Ratio vs. Control: Insulin to Glucagon [1] | Ratio vs. Control: MAFA to Arx4 [1] | fold induction at 4 µM [1, 3] | fold induction at 4 µM [1, 4] | other results
Cc1ccc(-c2nn(C(C)(C)C)c3ncnc(N)c23)cc1 [Well C12, PP1] | 1.0 | 0.4 |  |  | 
CN(C)CCCn1cc(C2=C(c3c[nH]c4ccccc34)C(=O)NC2=O)c2ccccc21 [Well D7, GF 109203X] | 1.7 | 0.6 |  |  | 
NC(N)=NCCNS(=O)(=O)c1cccc2cnccc12 [Well E1, HA-1004] | 1.1 | 0.9 |  |  | 
O=S(=O)(c1cccc2cnccc12)N1CCCNCC1 [Well E2, HA-1077] |  |  | 0.8 | 0.8 | 
COc1ccc(S(=O)(=O)N(CCO)c2ccccc2CN(C)C/C=C/c2ccc(Cl)cc2)cc1 [Well E5, KN-93] | 1.3 | 1.1 |  |  | 
Cl.O=S(=O)(c1cccc2c(Cl)cccc12)N1CCCNCC1 [Well E7, ML-9] | 4.8 | 0.2 |  |  | 
Cn1cnc2nc(NCCO)nc(NCc3ccccc3)c21 [Well E11, iso-Olomoucine] | 1.0 | 0.3 |  |  | 
Oc1ccc(-c2nc(-c3ccncc3)c(-c3ccc(F)cc3)[nH]2)cc1 [Well F3, SB-202190] |  |  | 2.6 | 2.5 | 
CN(C)c1ccc(C=C2C(=O)Nc3ccccc32)cc1 [Well F6, SU 4312] | 1.6 | 1.2 |  |  | 
O=c1c(-c2ccc(O)cc2)coc2cc(O)ccc12 [Well F12, Daidzein] |  |  | 1 | 1.4 | 
CC(C)c1cc(/C=C(\C#N)C(=O)NCCCc2ccccc2)cc(C(C)C)c1O [Well G3, SU1498] | 2.0 | 1.6 |  |  | 
C=CC(=O)c1ccc2ccccc2c1 [Well G4, ZM 449829] | 1.3 | 1.6 |  |  | 
COCc1cc(O)c(O)c(O)c1-c1c(COC)cc(O)c(O)c1O [Well G7, 2,2′,3,3′,4,4′-Hexahydroxy-1,1′-biphenyl-6,6′-dimethanol dimethyl ether] |  |  | 4.6 | 0.2 | 
C[C@@H](N)[C@H]1CC[C@H](C(=O)Nc2ccncc2)CC1 [Well G11, Y-27632] |  |  | 1.9 | 0.6 | 
CC1=C(O)C(=O)[C@@H]2O[C@@H]2C1=O [Well H1, Terreic acid] |  |  |  |  | fold induction at 4 µM ([1]; read-out: Ratio vs. Control: Insulin to Glucagon, 4 μM, six days): 3.1; fold induction at 4 µM ([1]; read-out: Ratio vs. Control: MAFA to Arx4, 4 μM, six days): 0.6
O=c1cc(-c2ccc(O)cc2)oc2cc(O)cc(O)c12 [Well H6, Apigenin] |  |  | 1.4 | 2.9 | 
GTP-14564 |  |  |  |  | Gene Induction vs. H1: MAFa [2]: 0.7 fold

Where two headings read alike, the source gives them in different places.
